# Screen size: about 390,000 compounds; about 4,000 (1%) were called active. Inconclusive results, whose numbers are uncertain, are shown with a selection of clear calls. The call rests on the fitted dose curve; in most records, active means well fitted inhibition curve with a large enough effect; inconclusive means small, poorly fitted or top-dose-only effect; inactive means no such curve, though single readings can be large or run the other way. Where the call is inconclusive, the potency comes from a doubtful curve fit.
# Target: Thioredoxin reductase 1, cytoplasmic (Rattus norvegicus) (UniProt O89049)
# Test: qHTS Assay for Inhibitors of Mammalian Selenoprotein Thioredoxin Reductase 1 (TrxR1): qHTS; further: nearly all actives have a fitted effect of over 65% in size
# Conditions: recombinant rTrxR1, NADPH fluorescence consumption, selenite substrate; series mostly up to 114 µM
# Procedure, shortened: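 Rat TrxR1 (90 nM in the dispensed reagent) was pre-reduced with 400 uM NADPH for 5 min at room temperature, then incubated with compound for 15 min. After 400 uM selenite was added, NADPH fluorescence (Ex 340/Em 450 nm) was followed for 8 min.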
# Potency means the concentration at half of the fitted maximal effect; tags describe the fitted curve by direction and shape.
# Sequence of UniProt O89049 (O89049 whole entry, looked up): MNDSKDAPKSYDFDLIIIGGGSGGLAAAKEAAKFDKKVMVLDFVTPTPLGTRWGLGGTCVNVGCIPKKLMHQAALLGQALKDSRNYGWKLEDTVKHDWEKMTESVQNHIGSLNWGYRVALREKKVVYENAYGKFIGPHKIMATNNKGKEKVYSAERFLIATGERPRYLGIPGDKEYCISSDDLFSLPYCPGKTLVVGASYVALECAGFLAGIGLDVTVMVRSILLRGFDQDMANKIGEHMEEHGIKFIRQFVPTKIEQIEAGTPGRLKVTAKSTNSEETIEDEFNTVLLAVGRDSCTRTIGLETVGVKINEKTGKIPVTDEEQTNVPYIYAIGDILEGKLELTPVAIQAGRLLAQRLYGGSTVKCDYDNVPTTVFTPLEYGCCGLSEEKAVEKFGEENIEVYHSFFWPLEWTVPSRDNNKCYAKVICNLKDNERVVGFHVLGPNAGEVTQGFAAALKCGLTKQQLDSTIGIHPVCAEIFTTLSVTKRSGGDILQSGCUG
row,Structure (SMILES),Potency
1,CCCN1CCN(CCCNC(=O)c2ccc3nc(N4CCC(C)CC4)sc3c2)CC1,"inconclusive: 89.1 µM [inhibitor, single point]"
2,COc1ccc(S(=O)(=O)Oc2c(OC)cc(C(=S)N3CCOCC3)cc2OC)cc1,inactive
3,COc1ccc(Nc2nc(C(=O)NCc3ccco3)cs2)cc1,inactive
4,CN1CCC(N(C)C(=O)c2ccc(Cl)c(S(=O)(=O)N3CCOCC3)c2)CC1,inactive
5,O=C1C=C(NCC2CCCO2)CC(c2ccccc2)C1 (stereo not given),"inconclusive: 89.1 µM [inhibitor, single point]"
6,COC(=O)C1=C(C)NC(=S)NC1c1ccc(-c2ccccc2C(=O)OC)o1 (stereo not given),inactive
7,CCc1ccc(S(=O)(=O)c2cn(CC(=O)Nc3ccc(F)c(Cl)c3)c3ccccc3c2=O)cc1,inactive
8,Brc1c(C[n+]2ccccc2)nc2ccccn12,"inconclusive: 89.1 µM [inhibitor, single point]"
9,COC(=O)c1[nH]c2ccccc2c1NC(=O)CN1CCCCCC1,"inconclusive: 79.4 µM [inhibitor, single point]"
10,Cc1ccc(CSCC(=O)N/N=C/c2sccc2C)cc1,"inconclusive: 100 µM [inhibitor, single point]"
11,C=CCSC1=N/C(=C\c2ccc(C)o2)C(=O)S1,"inconclusive: 25.1 µM [inhibitor, single point]"
12,Cn1c(=O)c(C(=O)CCl)c(N)n(CC2CC2)c1=O,active: 14.1 µM
13,COc1cc(C2C(C(=O)c3ccc(C)o3)=C(O)C(=O)N2CCc2ccccc2)ccc1O (stereo not given),"inconclusive: 63.1 µM [inhibitor, single point]"
14,Cc1cccc(NC(=O)Cn2nc(-c3ccco3)ccc2=O)c1C,"inconclusive: 28.2 µM [inhibitor, partial curve]"
15,COc1ccc2[nH]c3c(c2c1)CCNC3c1ccc([N+](=O)[O-])o1 (stereo not given),"inconclusive: 10 µM [inhibitor, partial curve, poor fit]"
16,O=C(NC(=S)Nc1ccc(CN2CCOCC2)cc1)c1ccc([N+](=O)[O-])cc1,"inconclusive: 56.2 µM [inhibitor, partial curve, poor fit]"
17,O=C(c1cc2ccccc2oc1=O)N1CCN(Cc2ccc3c(c2)OCO3)CC1,inactive
18,COc1ccc(OC)c(CN2CCN(C(=O)c3cc(S(=O)(=O)Nc4ccccc4OC)ccc3C)CC2)c1,"inconclusive: 50.1 µM [inhibitor, partial curve]"
19,COc1cc2c(cc1OC)C1=NC(=O)CN1C(SCc1ccccc1)=N2,inactive
20,COC(=O)c1ccc2c(c1)C(C)(C)C(/C=C/c1ccc(OC)c(OC)c1OC)=[N+]2C,inactive

# Reference: PubChem BioAssay AID588453 (National Center for Advancing Translational Sciences (NCATS), 2011)
